The values that follow come from PubChem BioAssay AID463173 (ICCB-Longwood Screening Facility, Harvard Medical School, 2010).

In all, about 52,000 compounds went through this assay and about 4,300 (8.3%) were called active. No stated cut-off is given here; in the data, active means survival mostly below about 52% (no sharp cut-off); inactive means mostly above about 56%. Some of the results follow.

This assay concerns DeltatarO mutant. In words: S. aureus survival, RN4220 and DeltatarO strains – OD600, teichoic acid synthesis inhibitors, primary screen (AID 463173). The settings on record: S. aureus RN4220 wild type/DeltatarO growth, OD600, 18 h, hits give low values, screened at 18.75 µg/mL (by protocol).
For the molecule `COc1ccc(-c2nc(CSCC(=O)N3CCN(c4cccc(C)c4C)CC3)c(C)o2)cc1OC`, the survival is inactive: 49%.

Turning to `COc1cccc(-n2c(=O)c3c4c(sc3n(Cc3ccc(C)cc3)c2=O)CCCC4)c1`, the survival is inactive: 65%.

Turning to `Cc1ccccc1-c1nc(SCC(=O)NCc2ccco2)c2c(=O)n(C)c(=O)n(C)c2n1`, the survival was inactive: 71%.

For `COc1ccc2oc(=O)c(-c3csc(-c4ccc(Br)cc4)n3)cc2c1`, the survival was inactive: 78%.

Regarding `COc1cccc(-n2cc(C(=O)NCCc3ccc(C)cc3)c3ccccc3c2=O)c1`, the survival was inactive: 61%.

`O=C(NC1CC(=O)N(c2cccc(F)c2)C1)C1CCCC1` (stereo not drawn): the survival is inactive: 93%.

For `Cc1c(C)c2c(cc(C)c3c(-c4ccccc4)coc32)oc1=O`, the survival is inactive: 62%.

In the case of `COc1ccccc1-n1ncc2c(=O)[nH]c(SCC(=O)Nc3ccc(Cl)cc3)nc21`, the survival is inactive: 95%.

For `Cc1ccc(CNC(=O)c2cccn2-c2nnc(N3CCCCC3)s2)cc1`, the survival is inactive: 106%.

Take `COc1cc(-c2nc(Cn3nnc(C(=O)Nc4ccccc4)c3C)c(C)o2)cc(OC)c1OC`: the survival is inactive: 42%.

Take `O=C(c1cccn1-c1nnc(N2CCCC2)s1)N1CCN(c2ccccc2)CC1`: the survival is active: 25%.

As to `CN(C)CCN(Cc1ccccc1)S(=O)(=O)c1ccc2[nH]c(=O)ccc2c1`, the survival was inactive: 95%.

Turning to `O=C(Cn1cnc2c(oc3ccccc32)c1=O)Nc1ccc(F)cc1F`, the survival is inactive: 105%.

Take `O=C(CSc1nc2c(oc3ccccc32)c(=O)n1Cc1ccco1)Nc1ccccc1Cl`: the survival was inactive: 58%.

With `CCCCN(C)S(=O)(=O)c1ccc(C(=O)Nc2sc3c(c2C(N)=O)CC(C)(C)NC3(C)C)cc1`, the survival was inactive: 78%.

Consider `Cc1ccc(NC(=O)C2CC(=O)n3cnnc3N2)cc1Cl` (stereo not drawn), for which the survival was inactive: 83%.

As for `CCCc1ccc(-c2ccc(C(=O)Oc3ccc(OCC)cc3)cc2)nc1`, the survival was inactive: 78%.

Take `Cc1ccc(CCNC(=O)CS(=O)Cc2nc(-c3ccccc3C)oc2C)cc1` (stereo not drawn): the survival is inactive: 69%.

Turning to `CCN(Cc1ccccc1)C(=O)Cn1c(=O)n(-c2ccc(Cl)cc2)c(=O)c2c(C)c(C(=O)N(C)C)sc21`, the survival is inactive: 98%.

With `Cc1c(CCC(=O)NCc2cccc(Cl)c2)c(=O)oc2c(C)c(O)ccc12`, the survival was inactive: 77%.

On to `COc1ccc(Nc2cc(C)c3ccccc3n2)cc1`, for which the survival is inactive: 96%.

For the molecule `CC(CNC(=O)c1ccc(CSc2nc3ccncc3n2Cc2ccccc2)cc1)c1ccccc1` (stereo not drawn), the survival is inactive: 78%.

With `COc1ccc(CNC(=O)CSc2nc(-c3ccc(OC)c(OC)c3)cc(C(F)(F)F)n2)cc1`, the survival is inactive: 72%.

On to `CN(C)S(=O)(=O)c1ccc(S(=O)(=O)N2CCC(c3nc4c(nnn4Cc4cccc(F)c4)c(=O)[nH]3)CC2)cc1`, for which the survival is inactive: 96%.

On to `COc1cc(Cl)c(NS(=O)(=O)c2ccc(-c3cnc(C4CC4)o3)cc2)c(OC)c1`, for which the survival is inactive: 74%.

As for `CC1CCCN(S(=O)(=O)c2ccc(S(=O)(=O)N3CCN(C=O)CC3)cc2)C1` (stereo not drawn), the survival was inactive: 100%.

In the case of `O=C(Nc1nc2ccccc2s1)c1ccc(S(=O)(=O)N2CCCC2)cc1`, the survival is inactive: 99%.

For the molecule `O=S(=O)(c1ccc2nc(NCc3ccccc3Cl)ccc2c1)N1CCCCC1`, the survival was inactive: 72%.

Consider `CCOc1ccc(C2C(=O)N(C3CCCCCC3)CC(=O)N2CCc2ccc(OC)c(OC)c2)cc1OC` (stereo not drawn), for which the survival is inactive: 87%.

As for `CCn1c(CNC(=O)c2ccc(OC)cc2)nnc1SCC(=O)Nc1ccc(C)cc1`, the survival is inactive: 126%.

With `Cc1cc2oc3c(c(=O)c2cc1C)C1(C(=O)N(C)c2ccccc21)N(CCO)C3=O` (stereo not drawn), the survival was inactive: 55%.

Turning to `COc1ccc(N2CC(NC(=O)c3ccco3)CC2=O)cc1` (stereo not drawn), the survival was inactive: 58%.

In the case of `O=C(O)COCC(=O)Nc1ccc2c(c1)CCC2`, the survival was inactive: 103%.

Consider `Nc1cc(=O)nc(SCC(=O)Nc2ccc(F)cc2)n1CCc1ccccc1`, for which the survival was inactive: 79%.

For the molecule `COc1ccccc1NC(=O)C1CCN(C(=O)c2sc3nc[nH]c(=O)c3c2C)CC1`, the survival is inactive: 80%.

Take `O=C(Nc1ccccc1Br)C(Cc1ccccc1)NS(=O)(=O)c1cccc2nsnc12` (stereo not drawn): the survival was inactive: 76%.

As to `CCN(CC)CCNC(=O)c1ccc2nc(CCc3ccccc3)oc2c1`, the survival is inactive: 95%.

Turning to `CCOC(=O)c1cc(S(=O)(=O)N2CCN(c3ccc(C(C)=O)cc3)CC2)[nH]n1`, the survival was inactive: 126%.

With `COc1ccccc1N1CCN(c2cc(C)nc3nc(-c4ccc(C)cc4)nn23)CC1`, the survival is active: 40%.

On to `O=C(NCc1ccc(F)cc1)c1ccc(Nc2nc3ccccc3n3nnnc23)cc1`, for which the survival was inactive: 52%.

`Cc1c(C(=O)Nc2ccccc2F)sc2ncnc(N(C)C3CCCCC3)c12`: the survival is active: 37%.

For `CN1CCN(CCC(O)COc2ccc(OCC(O)CCN3CCN(C)CC3)cc2)CC1` (stereo not drawn), the survival is inactive: 95%.

On to `O=C1C(=O)N(CC2CCCO2)C(c2ccccc2)/C1=C(/O)c1ccccc1` (stereo not drawn), for which the survival is inactive: 94%.

On to `Cc1cccc(CCNC(=O)CCc2c(C)nc3c4c(C)cc(C)nc4nn3c2C)c1`, for which the survival was inactive: 77%.

`COc1ccc(CNC(=O)Cn2ncc3c([nH]c4ccccc43)c2=O)cc1`: the survival was inactive: 91%.

Take `Cc1nn(-c2ccc(N3CCCC3)nn2)c(C)c1CCC(=O)Nc1ccc(F)cc1F`: the survival is inactive: 73%.

With `CCc1cccc(C)c1NC(=O)Cn1c(=O)cc(C)c2c(C)nn(-c3cccc(F)c3)c21`, the survival was inactive: 85%.

`Cc1c(CCNC(=O)c2ccco2)sc2nc(-c3ccc(F)cc3)nn12`: the survival was inactive: 67%.

With `Cc1ccc(NC(=O)CN2CCSc3ccc(S(=O)(=O)N4CCCC4)cc32)cc1`, the survival was inactive: 77%.

For the molecule `CC(=O)c1ccc(NC(=O)Cn2c(-n3nc(C)cc3C)nc(C)c(C)c2=O)cc1`, the survival was inactive: 55%.

Consider `CCN(CC)c1cc2c(cc1F)c(=O)c(S(=O)(=O)c1ccc(OC)cc1)cn2Cc1ccccc1`, for which the survival is inactive: 122%.

`CCOc1ccccc1Nc1nnc(-c2cc3cc(OC)ccc3oc2=O)s1`: the survival was inactive: 90%.

As for `CCOC(=O)Cc1ccc(NC(=O)N2CCC(CN3CCCCCC3)CC2)cc1`, the survival was inactive: 80%.

For the molecule `CCCCN(CC)C(=O)c1cc2c(=O)n3cccc(C)c3nc2n1C`, the survival was active: 56%.

Regarding `CCc1ccc(Oc2c(C(F)(F)F)oc3c(CN4CCC(C)CC4)c(O)ccc3c2=O)cc1`, the survival is inactive: 79%.

`Cc1ccc(S(=O)(=O)CC(=O)Nc2sc3c(c2C(N)=O)CCCC3)cc1`: the survival was inactive: 94%.

`CCc1ccc(NC(=O)Cc2c(C(=O)O)c(C)cn2C)cc1`: the survival is inactive: 87%.

As to `Cc1ccccc1Nc1c(-c2ccc(Br)o2)nc2ccc(Cl)cn12`, the survival was active: 37%.

For the molecule `CC(C)CCNC(=O)Nc1ccc2c(c1)N(Cc1ccccc1)C(=O)c1ccccc1S2`, the survival was inactive: 79%.

Take `COc1cc(OC)c(NC(=O)c2cc(C)nc3c2c(C)nn3-c2ccc(C)cc2)cc1Cl`: the survival was inactive: 103%.

Take `COc1ccc(CCNC(=O)c2ccc3c(c2)N(Cc2ccc(Cl)cc2)C(=O)c2ccccc2S3)cc1OC`: the survival was inactive: 61%.

`CCOc1ccc(-c2nn(CC(=O)NC3CCCC3)c3c2cnc2ccc(C)cc23)cc1`: the survival is inactive: 91%.

As for `Cc1cc(=O)n2nc(N(C)CC(=O)NCc3cccc(Br)c3)sc2n1`, the survival was inactive: 97%.

As to `CCOc1ccc(OCC)c(NC(=O)Cn2nc(CC)n3c(cc4sccc43)c2=O)c1`, the survival was inactive: 65%.

Consider `CCCCN(CC)CCCNC(=O)Cn1ncc2c3ccccc3n(C)c2c1=O`, for which the survival was inactive: 131%.

Regarding `CCOc1ccc(S(=O)(=O)N(CC(=O)NCc2ccccc2OC)c2ccccc2)cc1`, the survival was active: 37%.

Consider `COc1cccc(CSc2nc3n(n2)C(CC(C)C)C(C(=O)Nc2ccccc2OC)=C(C)N3)c1` (stereo not drawn), for which the survival was inactive: 75%.

With `COc1ccc(C(=O)N2CCC(C(=O)Nc3ccc(Cl)cc3)CC2)cc1`, the survival is inactive: 127%.

Regarding `COc1cccc(CNC(=O)c2oc3c(c2C)-c2nn(Cc4cccc(Cl)c4)cc2CC3)c1OC`, the survival was inactive: 68%.

For the molecule `COc1ccccc1C(=O)N1CCC(c2noc(-c3ccc(S(=O)(=O)N4CCCC4)cc3)n2)CC1`, the survival is inactive: 98%.

For `O=C(NCCc1ccc(Cl)cc1)c1ccc(CS(=O)Cc2ccccc2Cl)o1` (stereo not drawn), the survival is inactive: 61%.

Turning to `CC(C)N(C)C1CCN(S(=O)(=O)c2ccc3[nH]c(=O)ccc3c2)CC1`, the survival is inactive: 60%.

In the case of `CC(C)/C(N)=N/OC(=O)c1ccc(I)cc1`, the survival was inactive: 51%.

As to `CC(C)CCn1c(=O)c2sccc2n2c(CCCC(=O)NCCc3ccccc3)nnc12`, the survival is inactive: 68%.

`CCc1cccc(NC(=O)Cn2c(=O)n(CC(=O)NCCc3ccccc3)c(=O)c3ccccc32)c1`: the survival was inactive: 102%.

With `CCN(CC)C(=O)c1csc(Nc2ccc(C)cc2)n1`, the survival is inactive: 87%.

Turning to `CCCCc1nn2c(=O)cc(COC(=O)c3ccc(NC(=O)CCc4ccccc4)cc3)nc2s1`, the survival is inactive: 80%.

For `CCOCCCN1C(=O)c2[nH]nc(-c3ccccc3O)c2C1c1ccc(CC)cc1` (stereo not drawn), the survival was active: 39%.

Regarding `CCOC(=O)c1oc2c(c1C)-c1nn(Cc3c(F)cccc3Cl)cc1CC2`, the survival is inactive: 56%.

Regarding `COCC(=O)N1CCC(c2nc3ccccc3[nH]2)CC1`, the survival is inactive: 96%.

For the molecule `Cc1cccc(NC(=O)C2CCN(c3nc4ccccc4[nH]3)CC2)c1C`, the survival was inactive: 81%.

In the case of `Cc1ccc(C)c(CNC(=O)CCn2cccn2)c1`, the survival is inactive: 94%.

Regarding `O=C(Nc1ccc2nc(SCC(=O)N3CCCC3)sc2c1)c1cccc(Br)c1`, the survival was inactive: 57%.

Take `CCOC(=O)c1cnc2c(C(F)(F)F)cccc2c1Cl`: the survival was inactive: 82%.

For `Cc1cc(N2CCN(c3cccc(C)c3C)CC2)n2nc(C)c(-c3ccc(Cl)cc3)c2n1`, the survival is inactive: 87%.

As for `CCOc1ccc(C2c3c(oc4ccccc4c3=O)C(=O)N2c2nnc(C)s2)cc1OC` (stereo not drawn), the survival is inactive: 83%.

For `COc1ccc(-n2c(-c3ccco3)nc3c(cnn3-c3ccccc3C)c2=O)cc1`, the survival was inactive: 125%.

For `Cc1ccccc1CNC(=O)c1cc2cc(S(=O)(=O)N3CCCCC3)ccc2n1C`, the survival was inactive: 102%.
